The supplement of paper PMC4967469
pIC50: −log10 of the molar value. By IC50 is meant the dose at which the fit gives 50% viability; fits outside the tested doses are given as limits. AUC is the area under the same curve over the 256-fold range up to the top dose, as a fraction; the more sensitive the line, the further below 1. For some assays here: An inferred top dose is not printed in the source and was worked back from the curve model. For some assays here: Where an entry number is given, a second screen of the drug exists; the two often differ.

Experiments:
Assay in all cases: Viability of human cancer cell lines after 72 h of drug (GDSC screen)
PI-103 = compound: Oc1cccc(-c2nc(N3CCOCC3)c3oc4ncccc4c3n2)c1 [PI-103]; settings: top dose 10.24 µM
Method: (§1)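 Human cancer cell lines in 384-well plates, medium with 10% serum, drug for 72 h over a 256-fold dose range (nine 2-fold or five 4-fold steps up to the top dose). Adherent lines were fixed and stained with the nucleic acid dye Syto60, suspension lines read with resazurin; signal relative to control wells, capped at 0 and 100%. One two-parameter sigmoid per drug and line, fitted in a mixed model over all curves with the slope shared within a line.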

Tretinoin = compound: CC1=C(/C=C/C(C)=C/C=C/C(C)=C/C(=O)O)C(C)(C)CCC1 [Tretinoin]; settings: top dose 10 µM; top dose inferred
Method: as §1

BX-795 = compound: O=C(NCCCNc1nc(Nc2cccc(NC(=O)N3CCCC3)c2)ncc1I)c1cccs1 [BX-795]; settings: top dose 5 µM; top dose inferred
Method: as §1

GSK690693 = compound: CCn1c(-c2nonc2N)nc2c(C#CC(C)(C)O)ncc(OC[C@H]3CCCNC3)c21 [GSK690693]; settings: top dose 10.24 µM; top dose inferred
Method: as §1

SB-505124 = compound: Cc1cccc(-c2[nH]c(C(C)(C)C)nc2-c2ccc3c(c2)OCO3)n1 [SB-505124]; settings: top dose 10 µM; top dose inferred
Method: as §1

UNC0638 = compound: COc1cc2c(NC3CCN(C(C)C)CC3)nc(C3CCCCC3)nc2cc1OCCCN1CCCC1 [UNC0638]
Method: as §1

[1] = top dose 20 µM, screen: GDSC drug entry 1236, top dose inferred
[2] = top dose 40 µM, screen: GDSC drug entry 245

For JIMT-1 (breast, adherent), the AUC (PI-103) was 0.622, the pIC50 (PI-103) was 5.84 and the AUC (Tretinoin) was 0.968. The pIC50 (Tretinoin) was < 5.00, the AUC (BX-795) was 0.835 and the pIC50 (BX-795) was 5.44. For the same cell line, the AUC (GSK690693) was 0.957, the pIC50 (GSK690693) was < 4.99 and the AUC (SB-505124) was 0.944. For the same cell line, the pIC50 (SB-505124) was < 5.00, the AUC (UNC0638; [1]) was 0.896 and the pIC50 (UNC0638; [1]) was < 4.70. For the same cell line, the AUC (UNC0638; [2]) was 0.921 and the pIC50 (UNC0638; [2]) was < 4.40.

“JURL-MK1 (chronic myeloid leukaemia, suspension)” was tested, and the AUC (PI-103) was 0.721, the pIC50 (PI-103) was 5.57 and the AUC (Tretinoin) was 0.767. For the same cell line, the pIC50 (Tretinoin) was 5.43, the AUC (BX-795) was 0.837 and the pIC50 (BX-795) was 5.48. For the same cell line, the AUC (GSK690693) was 0.975, the pIC50 (GSK690693) was < 4.99 and the AUC (SB-505124) was 0.931. The pIC50 (SB-505124) was < 5.00, the AUC (UNC0638; [1]) was 0.808 and the pIC50 (UNC0638; [1]) was 4.99. The AUC (UNC0638; [2]) was 0.647 and the pIC50 (UNC0638; [2]) was 5.20.

K2 (melanoma, adherent) was tested, and the AUC (PI-103) was 0.925, the pIC50 (PI-103) was < 4.99 and the AUC (Tretinoin) was 0.982. The pIC50 (Tretinoin) was < 5.00, the AUC (BX-795) was 0.981 and the pIC50 (BX-795) was < 5.30. The AUC (GSK690693) was 0.982, the pIC50 (GSK690693) was < 4.99 and the AUC (SB-505124) was 0.972. The pIC50 (SB-505124) was < 5.00, the AUC (UNC0638; [1]) was 0.847 and the pIC50 (UNC0638; [1]) was < 4.70. For the same cell line, the AUC (UNC0638; [2]) was 0.915 and the pIC50 (UNC0638; [2]) was < 4.40.

In the case of KMH-2 (thyroid, adherent), the AUC (PI-103) was 0.266, the pIC50 (PI-103) was 6.82 and the AUC (Tretinoin) was 0.976. The pIC50 (Tretinoin) was < 5.00, the AUC (BX-795) was 0.76 and the pIC50 (BX-795) was 5.80. For the same cell line, the AUC (GSK690693) was 0.949, the pIC50 (GSK690693) was < 4.99 and the AUC (SB-505124) was 0.974. The pIC50 (SB-505124) was < 5.00, the AUC (UNC0638; [1]) was 0.817 and the pIC50 (UNC0638; [1]) was 5.01. The AUC (UNC0638; [2]) was 0.956 and the pIC50 (UNC0638; [2]) was < 4.40.

In the case of KMRC-1 (kidney, adherent), the AUC (PI-103) was 0.967, the pIC50 (PI-103) was < 4.99 and the AUC (Tretinoin) was 0.985. The pIC50 (Tretinoin) was < 5.00, the AUC (BX-795) was 0.926 and the pIC50 (BX-795) was < 5.30. For the same cell line, the AUC (GSK690693) was 0.987, the pIC50 (GSK690693) was < 4.99 and the AUC (SB-505124) was 0.967. The pIC50 (SB-505124) was < 5.00, the AUC (UNC0638; [1]) was 0.983 and the pIC50 (UNC0638; [1]) was < 4.70. The AUC (UNC0638; [2]) was 0.909 and the pIC50 (UNC0638; [2]) was < 4.40.

With KMRC-20 (kidney, adherent) the AUC (PI-103) was 0.989, the pIC50 (PI-103) was < 4.99 and the AUC (Tretinoin) was 0.989. For the same cell line, the pIC50 (Tretinoin) was < 5.00, the AUC (BX-795) was 0.83 and the pIC50 (BX-795) was 5.49. For the same cell line, the AUC (GSK690693) was 0.989, the pIC50 (GSK690693) was < 4.99 and the AUC (SB-505124) was 0.988. The pIC50 (SB-505124) was < 5.00, the AUC (UNC0638; [1]) was 0.988 and the pIC50 (UNC0638; [1]) was < 4.70. For the same cell line, the AUC (UNC0638; [2]) was 0.987 and the pIC50 (UNC0638; [2]) was < 4.40.

In the case of KMS-11 (myeloma, suspension), the AUC (PI-103) was 0.607, the pIC50 (PI-103) was 5.92 and the AUC (Tretinoin) was 0.963. The pIC50 (Tretinoin) was < 5.00, the AUC (BX-795) was 0.988 and the pIC50 (BX-795) was < 5.30. The AUC (GSK690693) was 0.96, the pIC50 (GSK690693) was < 4.99 and the AUC (SB-505124) was 0.972. The pIC50 (SB-505124) was < 5.00, the AUC (UNC0638; [1]) was 0.749 and the pIC50 (UNC0638; [1]) was 5.25. For the same cell line, the AUC (UNC0638; [2]) was 0.687 and the pIC50 (UNC0638; [2]) was 5.12.

In the case of KON (head and neck, adherent), the AUC (PI-103) was 0.952, the pIC50 (PI-103) was < 4.99 and the AUC (Tretinoin) was 0.987. For the same cell line, the pIC50 (Tretinoin) was < 5.00, the AUC (BX-795) was 0.837 and the pIC50 (BX-795) was 5.49. For the same cell line, the AUC (GSK690693) was 0.987, the pIC50 (GSK690693) was < 4.99 and the AUC (SB-505124) was 0.974. For the same cell line, the pIC50 (SB-505124) was < 5.00, the AUC (UNC0638; [1]) was 0.753 and the pIC50 (UNC0638; [1]) was 5.18. For the same cell line, the AUC (UNC0638; [2]) was 0.984 and the pIC50 (UNC0638; [2]) was < 4.40.

KP-2 (pancreas, adherent) was tested, and the AUC (PI-103) was 0.927, the pIC50 (PI-103) was < 4.99 and the AUC (Tretinoin) was 0.952. For the same cell line, the pIC50 (Tretinoin) was < 5.00, the AUC (BX-795) was 0.857 and the pIC50 (BX-795) was 5.34. For the same cell line, the AUC (GSK690693) was 0.949, the pIC50 (GSK690693) was < 4.99 and the AUC (SB-505124) was 0.962. The pIC50 (SB-505124) was < 5.00, the AUC (UNC0638; [1]) was 0.985 and the pIC50 (UNC0638; [1]) was < 4.70. For the same cell line, the AUC (UNC0638; [2]) was 0.907 and the pIC50 (UNC0638; [2]) was < 4.40.

With KP-3 (pancreas, adherent) the AUC (PI-103) was 0.941, the pIC50 (PI-103) was < 4.99 and the AUC (Tretinoin) was 0.984. The pIC50 (Tretinoin) was < 5.00, the AUC (BX-795) was 0.896 and the pIC50 (BX-795) was < 5.30. The AUC (GSK690693) was 0.956, the pIC50 (GSK690693) was < 4.99 and the AUC (SB-505124) was 0.95. The pIC50 (SB-505124) was < 5.00, the AUC (UNC0638; [1]) was 0.834 and the pIC50 (UNC0638; [1]) was 4.78. The AUC (UNC0638; [2]) was 0.77 and the pIC50 (UNC0638; [2]) was 4.74.
